Activation data for 83 compounds are collected here from PubChem BioAssay AID1346428 (National Center for Advancing Translational Sciences (NCATS), 2018).

Each structure is given as a SMILES string. The whole screen tested about 48,000 compounds, of which about 1,200 (2.5%) were called active. About 2% were inconclusive and are not listed.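 How the source made its calls: active means activation of at least 60% and not above a set upper limit (about 1 call in 100 departs from these limits); inconclusive means activation of 40% to 60%, or above that upper limit; inactive means activation under 40%.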 Some of the results follow.

Chain of UniProt O75388 (O75388 whole entry, looked up, the tested form may be a part): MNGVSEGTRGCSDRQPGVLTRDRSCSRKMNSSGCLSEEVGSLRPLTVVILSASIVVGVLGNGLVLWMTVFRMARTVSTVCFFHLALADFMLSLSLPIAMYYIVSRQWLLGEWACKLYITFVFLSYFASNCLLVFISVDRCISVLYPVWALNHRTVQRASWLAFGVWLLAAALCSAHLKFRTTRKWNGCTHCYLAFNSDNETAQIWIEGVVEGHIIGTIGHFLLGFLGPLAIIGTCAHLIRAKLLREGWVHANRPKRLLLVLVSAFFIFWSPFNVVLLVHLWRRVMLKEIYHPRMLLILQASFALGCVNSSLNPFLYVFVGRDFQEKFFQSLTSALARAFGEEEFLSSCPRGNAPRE

The assay has as its target Probable G-protein coupled receptor 32 (Homo sapiens) (UniProt O75388). The assay is described as follows: qHTS for Agonists of Human Resolvin D1 Receptor DRV1. Further: 0% is about no effect. To be noted: CHO-K1 GPR32 beta-arrestin PathHunter luminescence, 90 min; at 76.9 µM; active compounds read high; zero percent set by DMSO-only wells. Summed up:
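GPR32 activation in stably transfected CHO-K1 cells, detected as beta-arrestin recruitment by enzyme-fragment complementation. Compound exposure: 90 min, 37 °C.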
Background: In qHTS, concentration-response curves come from the screen itself.
With `O=C(CCCn1c(=O)c2ccccc2n(CC(=O)Nc2cccc(Cl)c2)c1=O)NCc1ccc2c(c1)OCO2`, the activation was inactive: 16.2%. With `CCOc1ccc2oc(=O)cc(CN3CCN(Cc4ccc(F)cc4)CC3)c2c1`, the activation was inactive: -13.9%. The result for `CCC(=O)N1CCc2cc(Br)cc(S(=O)(=O)CCC(=O)N3CCN(c4ccc(OC)cc4)CC3)c21` reads inactive: -2.33%; that for `CC(C)c1ccc(Nc2ncnc3c2nc2n3CCCC2)cc1`, inactive: 31.7%.

For the compound `COc1cc(NC(=O)CNC(=O)Cn2ccc3ccccc3c2=O)cc(OC)c1OC`, the activation is inactive: 13.3%. As for `CCC(=O)Nc1ccccc1-c1nc2ccccc2n(C(C)C(=O)Nc2cccc(Cl)c2C)c1=O` (stereo not drawn), the activation is inactive: -21.2%.

As to `COc1cccc(CNC(=O)CSc2n[nH]c(-c3ccccc3Cl)n2)c1OC`, the activation is inactive: 2.45%.

Regarding `CCOc1ccc(NC(C)=O)cc1`, the activation was inactive: 0.176%. `COc1cccc(C2=C(C(C)=O)Sc3nnc(C4CCCCC4)n3N2C(C)=O)c1`: the activation was inactive: -45%.

For `CCOc1ccccc1CNC(=O)c1cn(-c2ccc(OC)cc2)c(=O)c2ccccc12`, the activation was inactive: -12.9%. Turning to `CN1CCC[C@@H]1CCO[C@](C)(c1ccccc1)c1ccc(Cl)cc1`, the activation is active: 68.2%. The result for `CCOc1ccc(NC(=O)[C@H]2O[C@@H]3OC(C)(C)O[C@@H]3[C@H]3OC(C)(C)O[C@H]32)cc1` reads inactive: 5.88%.

Regarding `Cc1cccc(NC(=O)CSc2nc(=O)n(Cc3ccco3)c3c2CCC3)c1C`, the activation is inactive: -7.68%. Regarding `CCc1nn(CC(=O)NCc2ccccc2Cl)c(=O)c2cc3ccccc3n12`, the activation is inactive: -1.26%. The result for `Cc1cc(C)cc(NC(=O)C(=O)NCCCN2CCOCC2)c1` reads inactive: 0.295%; that for `Cc1ccc2cc3cc(C(=O)N4CCN(c5ccccc5)CC4)oc3nc2c1`, inactive: -15.5%.

With `O=c1c(N2CCN(c3cccc(Cl)c3)CC2)csc2ccccc12`, the activation was inactive: -63.3%. Under `O=C(Nc1nc2ccc(S(=O)(=O)N3CCCC3)cc2s1)c1ccc(F)cc1` stands inactive: 9.84%; under `CCc1ccc(Oc2c(C(F)(F)F)oc3c(CN4CCN(CC)CC4)c(O)ccc3c2=O)cc1`, inactive: 2.76%. Take `CC1CCCCN1CCCNC(=O)c1ccc2c(c1)sc1nc(-c3ccc(F)cc3)cn12` (stereo not drawn): the activation was inactive: 9.67%.

With `CCOc1ccc(CN(C(=O)c2nc(SC)ncc2Cl)C2CCS(=O)(=O)C2)cc1` (stereo not drawn), the activation is inactive: -0.173%.

As to `CCOC(=O)c1noc2ncnc(N3CCN(c4cccc(Cl)c4)CC3)c12`, the activation is inactive: 9.47%. For `CCOC(=O)N1CCc2c(sc3c2c(=O)n(-c2ccc(Cl)cc2)c(=O)n3Cc2cccc(OC)c2)C1`, the activation was inactive: -1.86%. Consider `COCCCNC(=O)c1ccc(Cn2c(=O)c3ccccc3n(CC(=O)Nc3ccc(C)cc3C)c2=O)cc1`, for which the activation is inactive: 6.89%. As for `COc1ccc(-c2nc3nc(C)cc(N4CCN(c5cccc(C(F)(F)F)c5)CC4)n3n2)cc1`, the activation is inactive: -2.74%. As to `Cc1cc(C)cc(NC(=O)Cn2nnc(C(=O)NCc3ccccc3Cl)c2N)c1`, the activation was inactive: 24.7%. Under `COc1ccc(CCNC(=O)c2cc3c(s2)-c2c(C)cccc2OC3)c(OC)c1` stands inactive: -18.1%; under `CCOc1ccc(C(=O)Nc2ccccc2C(=O)OCc2cc(=O)n3nc(C4CC4)sc3n2)cc1`, inactive: -5.93%.

Regarding `CC(C)c1cc(C(=O)NC(C)c2ccccc2)no1` (stereo not drawn), the activation is inactive: 17.4%. Take `CCc1ccc(S(=O)(=O)c2nnn3c2nc(Nc2cc(OC)cc(OC)c2)c2cc(Cl)ccc23)cc1`: the activation is inactive: 1.42%. The result for `Cc1ccc(-c2nc(S(=O)(=O)c3ccc(C)cc3)c(SCC(=O)Nc3ccc(F)cc3)o2)cc1` reads inactive: -8.53%; that for `CCN(Cc1ccccc1)C(=O)c1cc2c(=O)oc3ccc(C)cc3c2s1`, inactive: 20.8%.

Regarding `Cc1cccc2c1-c1sc(C(=O)NCc3ccc(Cl)cc3)cc1CO2`, the activation was inactive: -1.57%. For `Cc1cccc(N2CC(c3nc4ccccc4n3CCC3CCCCC3)CC2=O)c1` (stereo not drawn), the activation is inactive: -2.59%. Under `COc1ccc(NC(=O)C2CCN(c3nc4ccccc4nc3C(F)(F)F)CC2)cc1` stands inactive: 0.748%; under `Nc1cccc2c(N)cccc12`, inactive: -23.8%; under `CCOc1ccccc1CNC(=O)c1cnc2c(-c3ccc(OCC)c(OCC)c3)c(C)nn2c1C`, inactive: 38%. Under `O=C(Cn1cc(SCc2ccccc2)c2ccccc21)N1CCCCCC1` stands inactive: -12.1%; under `COc1ccc(-c2cn3nc(N4CCC(C(=O)Nc5ccc(Cl)cc5C)CC4)sc3n2)cc1`, inactive: 1.64%. With `Cc1oc(-c2ccc(C(=O)NCCc3ccc(Cl)cc3)cc2)nc1CSc1ccccc1`, the activation was inactive: 20.1%.

In the case of `COc1ccc(-n2nc(C(=O)NCCc3ccc(OC)c(OC)c3)c3c4ccccc4n(C)c3c2=O)cc1Cl`, the activation is inactive: -8.85%.

For the compound `COCCCNC(=O)c1c(NC(=O)c2cc(=O)c3ccccc3o2)sc2c1CCCC2`, the activation was inactive: -3.92%. The result for `Cc1ccc(N2CCN(c3c(CN4CCCC4)c(=O)oc4ccccc34)CC2)c(C)c1` reads inactive: -13.5%; that for `Cc1ccc(-c2nc(SCC(=O)N3CCc4ccccc43)c3c(=O)n(C)c(=O)n(C)c3n2)cc1`, inactive: 6.76%; that for `CCOC(=O)C1CCC(CN(Cc2c(Cl)cccc2Cl)S(=O)(=O)c2ccc(Cl)cc2)CC1` (stereo not drawn), inactive: -23.4%. Under `CCn1ccc2cc(S(=O)(=O)N3CCC(C(=O)NCc4ccc(OC)cc4)CC3)ccc21` stands inactive: -6.7%. Under `Cc1ccc2nc(-c3ccc(Cl)c(NC(=O)c4cccc([N+](=O)[O-])c4C)c3)oc2c1` stands inactive: -11.1%. Take `Cc1ccccc1CN1C(=O)c2ccccc2Sc2ccc(C(=O)OCc3ccco3)cc21`: the activation is inactive: -6.95%. Under `Cc1ccc(S(=O)(=O)n2nc(C)c(S(=O)(=O)N3CCC(C)CC3)c2C)cc1` stands inactive: 11.8%. Under `O=C(NCc1ccccc1)c1ccc2c(c1)N(Cc1cccc(Cl)c1)C(=O)c1ccccc1S2(=O)=O` stands inactive: -24.3%.

As to `COc1cc(/C=C/c2nc3cc(Cl)ccc3c(=O)n2-c2cccc(C(F)(F)F)c2)cc(OC)c1OC`, the activation was inactive: -2.75%. Under `COc1cc2ncnc(Nc3ccc(F)c(Cl)c3)c2cc1OCCCN1CCOCC1` stands active: 77.3%; under `O=C(COCc1cc(-c2ccco2)on1)Nc1cccc(O)c1`, inactive: -7.96%; under `COc1ccc(Cn2c(SCC(=O)Nc3ccc(OC)cc3)nc3ccccc32)cc1`, inactive: 15.7%. On to `COc1cc(OC)c(N(C)C(=O)C2CCCN(c3ncnc4c3nc3n4CCCCC3)C2)cc1Cl` (stereo not drawn), for which the activation was inactive: -13.9%. As for `Cc1ccc(-c2nc3c(cnn3-c3ccccc3)c(=O)n2-c2cccc(Cl)c2)cc1`, the activation was inactive: -4.08%.

On to `CN(C)S(=O)(=O)c1ccc2c(c1)N(CC(=O)N1CCN(c3cccc(Cl)c3)CC1)CCS2`, for which the activation is inactive: -18.3%. The result for `Cn1c(=O)c(=O)n(C)c2cc(S(=O)(=O)CCC(=O)Nc3cccc(C(F)(F)F)c3)ccc21` reads inactive: -14.8%.

Turning to `CC1CCCN(Cc2c(O)ccc3c(=O)c(Oc4ccc(C(C)(C)C)cc4)c(C(F)(F)F)oc23)C1` (stereo not drawn), the activation is active: 64.7%. The result for `COc1cc(NC(=O)Nc2nnc(N3CCCCCC3)s2)cc(OC)c1` reads inactive: 4.6%. `Cc1ccc(Cc2cnc(NC(=O)C3Cc4ccc(C)cc4C(=O)O3)s2)cc1` (stereo not drawn): the activation is inactive: -4.17%. Consider `COc1ccc(C(CNC(=O)c2cccc([N+](=O)[O-])c2)N2CCOCC2)cc1` (stereo not drawn), for which the activation is inactive: -13.4%. The result for `COc1ccc(CCNc2nc(-c3ccc(F)cc3)cc(C(F)(F)F)n2)cc1OC` reads inactive: 14%; that for `COC(=O)c1cnn(-c2ccc(C(=O)Nc3ccc(OC(F)(F)F)cc3)cc2)c1N`, inactive: -6.89%. `CCc1ccc(NC(=O)CN2CCSc3ccc(S(=O)(=O)N4CCCC4)cc32)cc1`: the activation was inactive: -2.13%.

For the compound `COc1ccc(/C=C/C(=O)c2ccc(OC)cc2OC)cc1`, the activation was inactive: -13.6%.

`CC(NC(=O)c1c2c(nc3ccccc13)C(=O)N(C1CCCCC1)C2)c1ccccc1` (stereo not drawn): the activation is inactive: -21.9%. `CC(C(=O)O)c1ccc(C(=O)c2cccs2)cc1` (stereo not drawn): the activation is inactive: 2.93%.

Consider `CCOc1ccc(S(=O)(=O)c2cn(C)c3ccccc3c2=O)cc1`, for which the activation is inactive: 14.7%.

In the case of `Cc1ccc(NC(=O)CN2C(=O)CCn3nc(-c4cccn4C)cc32)c(Cl)c1`, the activation was inactive: -6.03%. Under `CCN(C(=O)c1cccn(Cc2ccccc2C)c1=O)c1ccccc1` stands inactive: -13.3%; under `CN(C)c1ccc(NC(=O)CN2C(=O)c3ccccc3Sc3ccc(C(=O)N4CCCC4)cc32)cc1`, inactive: -24.8%.

For `CCOC(=O)C1CCN(C(=O)Cn2ncc3c4ccccc4n(Cc4ccccc4F)c3c2=O)CC1`, the activation is inactive: -8%.

With `Cc1cccc(N2CCN(CCCNC(=O)c3sc4ncccc4c3-n3cccc3)CC2C)c1` (stereo not drawn), the activation is inactive: -20.2%. Regarding `O=C(Cn1c(-c2cccs2)cc2cc(F)ccc21)NCCCN1CCN(c2ccccc2F)CC1`, the activation was inactive: 9.53%. Regarding `Cc1nn(CCCC(=O)NCc2cccc(Cl)c2)c(=O)c2c1sc1ccccc12`, the activation was inactive: -18.1%.

With `Cc1nnc(NC(=O)CSc2nnc3c(n2)[nH]c2ccccc23)s1`, the activation was inactive: -26.7%. `O=c1n(Cc2ccc(F)cc2)nc2n1-c1cc(Cl)ccc1OC2`: the activation is inactive: 18%. The result for `Cc1ccc(F)cc1NC(=O)c1ccc(Cn2nc(N3CCN(c4ccccc4)CC3)ccc2=O)o1` reads inactive: -18%. For the compound `Cc1nc2ccn(Cc3cccnc3)c(=O)c2cc1C(=O)NCc1ccc(Cl)cc1`, the activation is inactive: -7.99%. The result for `COc1ccccc1CNC(=O)CCCn1nc(C)c2c(C)n(-c3ccc(C)cc3)nc2c1=O` reads inactive: -8.7%; that for `COc1cc(C(=O)Nc2ccc(Cl)c(-c3nc4ncccc4o3)c2)cc(OC)c1OC`, inactive: 4.39%. For `CCOc1cccc(CC(=O)N2CCc3c([nH]c4ccccc34)C2c2ccc(C)cc2)c1OCC` (stereo not drawn), the activation is inactive: -34.4%.
